Source: PubChem BioAssay AID1347073 (National Center for Advancing Translational Sciences (NCATS), 2019)
Among all 45,000 compounds or so, about 200 (0.44%) were called active. Inconclusive results (about 7%) are left out. The call rests on the fitted dose curve; in most records, active means well fitted activation curve with a large enough effect; inconclusive means small, poorly fitted or top-dose-only effect; inactive means no such curve, though single readings can be large or run the other way. The list shows a part of the results.

assay: qHTS of TDP-43 Inhibitors: NCGC Sytravon Library Screen; conditions: yeast TDP-43 toxicity rescue, BacTiter-Glo growth, 24 h; series mostly up to 46.1 µM; growth rescue (activation): at the top concentration; further: 0% is about no effect; nearly all actives have a fitted effect of over 55% in size
In short: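 TDP-43-expressing yeast, pregrown in raffinose, seeded at OD600 0.02 in galactose medium with compound for 24 hr at 30 deg C. Growth read by BacTiter-Glo luminescence, so rescue of toxicity appears as activation.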

| SMILES | growth rescue (activation) |
| --- | --- |
| COc1ccc(C(CNS(=O)(=O)c2ccc(NC(C)=O)c(OC)c2)N2CCCC2)cc1 (centres undefined) | inactive: 15.2% |
| COc1ccc(CC(NC(C)=O)C(=O)NC2CCN(C(=O)C3CCCCC3)CC2)c(OC)c1 (centres undefined) | inactive: -10.6% |
| COc1ccc(NC(=O)N2CCCC(CCC(=O)N(C)CCc3ccccn3)C2)cc1 (centres undefined) | inactive: -1.27% |
| Cc1cnc(C(=O)OCC(=O)Nc2cccc(S(=O)(=O)N3CCCCC3)c2)cn1 | inactive: -1.48% |
| O=C(Nc1ccccc1C(=O)O)C1=NN=CC1 | inactive: 4.13% |
| COc1ccc(C)cc1S(=O)(=O)N1CCN(C(=O)c2ncoc2-c2ccccc2C)CC1 | inactive: -1.48% |
| COc1cccc(C(=O)Nc2ccc(S(=O)(=O)N3CCN(C)CC3)cc2)c1 | inactive: 9.16% |
| COc1ccc(CCNC(=O)COC(=O)c2ccc(S(=O)(=O)N3CCCC3)cc2)cc1OC | inactive: -16.8% |
| Cn1nnnc1SCC(=O)NC1CCCC1 | inactive: 5.5% |
| CS(=O)(=O)c1ccc(C(=O)Nc2ccc(N3CCCC3)cc2)c(Cl)c1 | inactive: 4.83% |
| COc1cccc(/C=C/C(=O)OCC(=O)NCc2ccco2)c1OC | inactive: 8.43% |
| COc1ccc(CNc2cc(NCCCO)c([N+](=O)[O-])c3nonc23)cc1 | inactive: 2.18% |
| CN(Cc1cccc(F)c1)CC(O)COCc1ccccc1Cl (centres undefined) | inactive: -7.59% |
| CC(=C/c1ccccc1)/C=N/NC(=O)c1nnn(-c2nonc2N)c1CN1CCC(C)CC1 | inactive: -2.22% |
| COC(=O)c1ccc2c(=O)n(CC3CCCO3)c(SCC(=O)NCCc3ccc(S(N)(=O)=O)cc3)nc2c1 (centres undefined) | inactive: 3.73% |
| OC[C@@H]1CN(Cc2ccc(Cl)cc2)C[C@H](n2cnc3c(NCc4ccncc4)ncnc32)O1 | inactive: 5.47% |
| O=C(Nc1ccc(S(=O)(=O)Nc2ccccn2)cc1)c1cccc(Br)c1 | inactive: 11.7% |
| Cc1ccc(C)n1-c1nnc(N2CCC(C(=O)NCc3ccc(F)cc3)CC2)s1 | inactive: -0.258% |
| Cc1ccc(C(=O)NC(=S)Nc2ccc(-c3cc4ccccc4oc3=O)cc2)c(C)c1 | inactive: -0.471% |
| Cn1c(=O)c2cc(S(=O)(=O)Nc3cc(C(=O)O)cc(C(=O)O)c3)ccc2n(C)c1=O | inactive: 1.44% |
| Cc1cc(O)c2/c(=N\N)c(-c3csc(C)n3)coc2c1 | inactive: 2.53% |
| Cc1ccc(N(C(=O)c2ccco2)C2C=CS(=O)(=O)C2)cc1 (centres undefined) | inactive: -2.37% |
| Cc1cc(NC(=O)CCC(=O)N(c2ccc(C)c(F)c2)C(C(=O)NC2CCCC2)c2ccco2)no1 (centres undefined) | inactive: -0.393% |

| SMILES | growth rescue (activation) |
| --- | --- |
| C=C(C)Cn1c2ccc(NC(=O)CCc3cccc(Cl)c3)cc2c(=O)n1C | inactive: 12.9% |
| CCCCCOCC(O)CCC(=O)NN (centres undefined) | inactive: -7.76% |
| O=C(CC1CC2CCC1C2)NCCc1ccc(Cl)cc1 (centres undefined) | inactive: 30.3% |
| O=C(CSc1ccccc1)NCc1ccccn1 | inactive: -4.9% |
| CCCn1c(S(=O)(=O)O)nc2ccccc21 | inactive: -13% |
| Cc1ccc2c(c1)c1c3n2CCN(CC(O)CNC(C)C)C3CCC1 (centres undefined) | inactive: -0.234% |
| COc1cc2cc(-c3ccc(O)cc3O)nc(C)c2cc1OC | inactive: 10.8% |
| Cc1ccc(Cl)cc1NC(=O)CN1CCN(S(=O)(=O)N2CCOCC2)CC1 | inactive: 12.2% |
| Cc1ccc(NCc2ccc(O)c3ncccc23)cc1 | inactive: 12% |
| Cc1cnc(CNC(=O)c2ccc(OC3CCN(C(=O)C4CC4)CC3)cc2)cn1 | inactive: 0.509% |
| COc1ccc(NC(=O)CCCNC(=O)Cn2cnc3sc(C)c(C)c3c2=O)cc1Cl | inactive: -4.92% |
| Cc1ccc(-c2csc(NC(=S)NC(=O)c3cccs3)n2)cc1 | inactive: 6.88% |
| c1ccc(-c2noc(CC3CCCCC3)n2)cc1 | inactive: 6.13% |
| C=CCc1cc(/C=C2/NC(=O)N(CC(=O)OC)C2=O)cc(OC)c1O | inactive: -0.873% |
| O=C(CSc1nnnn1-c1cccc(F)c1)NC1CC1 | inactive: -28.2% |
| O=C(O)C(NS(=O)(=O)c1ccc(F)cc1)c1ccccc1 (centres undefined) | inactive: 5.4% |
| CCOCCCn1c(SCC(=O)NCc2ccc3c(c2)OCO3)nc2ccccc2c1=O | inactive: 7.4% |
| Cc1ccc(SCC(=O)NCCCc2ccccc2)cc1 | inactive: 29.8% |
| Cc1ccccc1C(=O)NC(=S)Nc1ccccc1C(=O)O | inactive: -10.5% |
| O=C(CSc1nc2scc(-c3ccccc3)c2c(=O)[nH]1)N1CCCCC1 | inactive: -2.15% |
| O=C(N/N=C/c1ccccc1O)C1CC(=O)N(c2ccc(F)cc2)C1 (centres undefined) | inactive: 6.85% |
| COCCNC(=O)C1(C)CCN(C(=O)c2cc(-c3ccccc3)cs2)C1 (centres undefined) | inactive: 3.77% |
| Cc1cc(C)n2nc(SCC(=O)N3CC(C)CC(C)C3)nc2n1 (centres undefined) | inactive: 14.8% |

| SMILES | growth rescue (activation) |
| --- | --- |
| O=S(=O)(Nc1cccc2ccccc12)c1ccccc1F | inactive: -2.9% |
| CC(c1nccs1)N(C)c1nc2nonc2nc1N(C)C (centres undefined) | inactive: 7.73% |
| COc1ccc(Cc2nnc(-c3ccccc3)o2)cc1 | inactive: 23.3% |
| CCOC(=O)c1ccc(N(C(=O)CNC(=O)c2ccco2)C(C(=O)NCC2CCCO2)c2ccc(OC)c(OC)c2)cc1 (centres undefined) | inactive: 2.38% |
| Cc1cccc(C)c1NC(=O)CCCSc1nc2ccccc2s1 | inactive: 2.03% |
| COc1cc(C2NC(=S)NC(c3ccccc3)=C2C(C)=O)ccc1O (centres undefined) | inactive: -7.19% |
| O=C(Nc1cccc(C(F)(F)F)c1)C(=O)N1CCCCC1 | inactive: 3.86% |
| CN1C(=O)Cc2cc(S(=O)(=O)NCc3c(F)cccc3Cl)ccc21 | inactive: 10.8% |
| COCCNc1nnc(SCC(=O)NNC(=O)c2ccccc2)s1 | inactive: 4.58% |
| Cc1ccc(C([O-])=C(C(=S)NCc2ccccc2)[n+]2cccc(CO)c2)cc1[N+](=O)[O-] | inactive: 9.18% |
| O=C(O)c1cc(Cl)ccc1OS(=O)(=O)c1ccc(Cl)s1 | inactive: 1.06% |
| Cn1c(SCC(=O)c2ccc3c(c2)NC(=O)CO3)nc2ccccc21 | inactive: 9.7% |
| CC(C)CC(=O)Nc1ccc(Cc2ccncc2)cc1 | inactive: -7.3% |
| S=c1[nH]nc(CCc2ccccc2)n1-c1ccc(Cl)cc1 | inactive: 19.3% |
| S=C(NCC(c1cccnc1)N1CCOCC1)NC1CCCCC1 (centres undefined) | inactive: 5.22% |
| CCNc1ccc(C(=O)N/N=C/c2c(C)nn(-c3ccccc3)c2N2CCCC2)cc1[N+](=O)[O-] | inactive: 6.23% |
| CC(=O)c1ccc(OCc2nnn(CC(=O)NS(=O)(=O)Cc3ccccc3)c2-c2ccccc2)cc1 | inactive: -1.15% |
| COc1ccc(S(=O)(=O)NCCOc2cccc3cccnc23)cc1OC | inactive: 8.88% |
| O=S(=O)(Cc1ccccc1)N1CCNCC1 | inactive: -7.63% |
| CN(C(=O)COC(=O)c1ccc2c(=O)n3c(nc2c1)CCC3)c1ccccc1 | inactive: 15.7% |
| COc1ccc(S(=O)(=O)Nc2ccc3c(c2)n(C)c(=O)n3C)cc1C | inactive: 2.63% |
| COCc1cc(C)[nH]c(=O)c1C(=O)NC12CC3CC(CC(C3)C1)C2 | inactive: 0.728% |
| CCCCCOC(=O)Cn1c(N2CCCCCC2)nc2c1c(=O)[nH]c(=O)n2C | inactive: -15.3% |
